Data reported in the RNAGym collection of RNA variant scans (doi:10.7554/elife.90254).
Read counts are not given, so values of variants with three or more changes are uncertain.

B1: LINE1-mini (parent)
chain: GGCAGAGCUCAACACAGCGUGGCAAAGUGGCUGUGGCUAGACUGCC

Variants of: B1
Assay: self-cleavage, relative activity (ratio to wild type); higher = more cleavage; in vitro, sequencing; the parent is a self-cleaving ribozyme

| Variant | self-cleavage |
| --- | --- |
| GGCAGAGCUGAACAUAGCGUGGAAAAGAGGCUGUGGCUAGACUGCC [C10G C15U C23A U28A] | 0.08 |
| GGCAGAGCUGAACACAGCGUGGCAAAGCGGCUGUGGCUAGACGGCA [C10G U28C U43G C46A] | 0 |
| GGCAGAGCUUUACACAGCGUGGCAAAGUGGCUGUGGCUAUACUGAC [C10U A11U G40U C45A] | 0.01 |
| GGCAGAGCUGAACACAGCGUGGCAAAGCGGCUGUGGCGAGACUGCC [C10G U28C U38G] | 0.02 |
| GGCAGAGCUGAUCACAGCGCGGCAAAGUGUCUGUGGCUAGACUGCC [C10G A12U U20C G30U] | 0.05 |
| GGCAGAGCUUCAGACAGCGACGCAAAGUGGCUGUGGCUAGACUGCC [C10U A11C C13G U20A G21C] | 0.02 |
| GGCAGAGCUGAACACAGCGUGGCAAAGUCGCAGUGGCCAGAAUGCC [C10G G29C U32A U38C C42A] | 0 |
| GGCAGAGCUGAACACAGCGUGGCAAAGUGGCCGUGGCUAGACUGGC [C10G U32C C45G] | 0.01 |
| GGCAGAGCUGACCACAGCGUGGCAAAGUGGCUGUGCCUAGACUGCC [C10G A12C G36C] | 0.05 |
| GGCAGAGCUGUACUCAACGUGGCAAAGUGGCUGUGGAUAGUCUGCC [C10G A11U A14U G17A C37A A41U] | 0.01 |
| GGCAGAGCUGAACACUGCGAGGCAACGAGGCUGUGGCUAGACUGCC [C10G A16U U20A A26C U28A] | 0.01 |
| GGCAGAGCUGAACACUGCGUGGCAAAGUGGCUGAGGCUAGAUUGCC [C10G A16U U34A C42U] | 0 |
| GGCAGAGCUGAACAUAGCGUGGCAAAGUGGCUGUGGAUAGACCACC [C10G C15U C37A U43C G44A] | 0.02 |
| GGCAGAGCUGAACACAGCGUGGCAAAGUGGCUGCGGCUAGAUUGCC [C10G U34C C42U] | 0.03 |
| GGCAGAGCUGAUCACAGAGUGGCAAAGUGGCUGUGGCUAGAAUGCC [C10G A12U C18A C42A] | 0.02 |
| GGCAGAGCUGAACAUAGCGUGGCAAAGUAGCUGUGGGUAGACUGGC [C10G C15U G29A C37G C45G] | 0.01 |
| GGCAGAGCUGAACACAGCGUGGGAAAGGGGCUGUGGCUAGACUGCC [C10G C23G U28G] | 0 |
| GGCAGAGCUGAACACAGCGUGGCAAAAUGGCUGUGCCUAGGCUGAC [C10G G27A G36C A41G C45A] | 0 |
| GGCAGAGCUGAACACAGCCUGGCAAAGUGGCUGUGGCUAGAGUGCU [C10G G19C C42G C46U] | 0.62 |

| Variant | self-cleavage |
| --- | --- |
| GGCAGAGCUGAACACAGCGUGGCAAUGUGGCUGUGGCUAGACUGUC [C10G A26U C45U] | 0.08 |
| GGCAGAGCUGAACAAAGCGUGGCAAAGUGGCUGUGACUAGACUGCC [C10G C15A G36A] | 0.01 |
| GGCAGAGCUGAAAACAGUGUGGCAAAGUGGCUGUGGCUACAAUGCC [C10G C13A C18U G40C C42A] | 0.02 |
| GGCAGAGCUGAACAUAGCGUGGCAAAGGGGCUGUGGCUAGACUGCC [C10G C15U U28G] | 0.1 |
| GGCAGAGCUGAACACAGCAUGGCAAAGUGGCUGUGGAUAGACUGCU [C10G G19A C37A C46U] | 0 |
| GGCAGAGCUGAGCACAGCGUGGCAAAGUGGCUGGGGCUUGACUGCC [C10G A12G U34G A39U] | 0.02 |
| GGCAGAGCUUUACACAGCGUGGCAAAGUAGUUGUGGCUAGACUGCC [C10U A11U G29A C31U] | 0.5 |
| GGCAGAGCUGAACACAUCGUGGUUAAGUGGCUGUGGCUAGACUGUC [C10G G17U C23U A24U C45U] | 0.03 |
| GGCAGAGCUGAACACAGCCUGGCAAAGUGGCUUUGGUUAGACUGUC [C10G G19C G33U C37U C45U] | 0.01 |
| GGCAGAGCUGAACACAGCGUGGCAAAGUGGCUGUGGCAAGACUGGC [C10G U38A C45G] | 0.02 |
| GGCAGAGCUGAACACAGCGUGGCAAGGUGGCUAUGUCUAGACUGCC [C10G A26G G33A G36U] | 0.02 |
| GGCAGAGCUUGACACAGCGUAGCAAAGUGGCUGUGUCUGGACUGCC [C10U A11G G21A G36U A39G] | 0 |
| GGCAGAGCUGAACAAAGCGGGGCAAAGUGGUUGUGACUAAACUGCC [C10G C15A U20G C31U G36A G40A] | 0.01 |
| GGCAGAGCUUGACACAGCGUGCCAAAAUGGGUGUGGCUAGACUGCC [C10U A11G G22C G27A C31G] | 0.01 |
| GGCAGAGCUGAACACAGGCUGGCAAAGUGACUGUGGCUAGACUGCC [C10G C18G G19C G30A] | 0.15 |
| GGCAGAGCUUCACACAGCGUGGCAAAGUGCCUGUGGCUAGACUGCC [C10U A11C G30C] | 0.02 |
| GGCAGAGCUGAACAAAGCGUGGCAAAGUGGCUGUGGCUAGACUGCG [C10G C15A C46G] | 0.03 |
| GGCAGAGCUGAACAUAGCGUGGCAAGGUAGCUGUGGCUAGAAUGCC [C10G C15U A26G G29A C42A] | 0 |
| GGCAGAGCUGAACAGUGCGUGGCAAAGUCGCUGUGGCUAGAAUGCC [C10G C15G A16U G29C C42A] | 0 |

| Variant | self-cleavage |
| --- | --- |
| GGCAGAGCUGAACACAGCGUGGCAAAGUGGCUGUGGCUCUACUGCC [C10G A39C G40U] | 0.01 |
| GGCAGAGCUGAACGCAGCGUGGCAAAGUGGCUGUGGCUAUACUACC [C10G A14G G40U G44A] | 0.02 |
| GGCAGAGCUGAACAGAGCGUGGCAAAGUGGCUGUGGCUAGACCGCC [C10G C15G U43C] | 0.02 |
| GGCAGAGCUGAACACAGCGUGACAAAGUCGCUGUGGCUAGACUGCC [C10G G22A G29C] | 0.02 |
| GGCAGAGCUGAACACAGCGUGGCAAAGGGGCUGGGGCUAGACUGCC [C10G U28G U34G] | 0.03 |
| GGCAGAGCUGAACACAACGUCGAAAAGUGGCUUUGGCUAGACUGCC [C10G G17A G21C C23A G33U] | 0.01 |
| GGCAGAGCUGAACAGAGCGAGGCAAAGUGGCUGAGGCUUGACUGCC [C10G C15G U20A U34A A39U] | 0.02 |
| GGCAGAGCUGAAAACAGCGUGGCAAAGUGGCUGAGGCUAGACUGCC [C10G C13A U34A] | 0.01 |
| GGCAGAGCUGAACACAGCUUGAGAAAGUGGCUGUGGCCAGACUGCC [C10G G19U G22A C23G U38C] | 0 |
| GGCAGAGCUGAAUACAGCGUGGCAAUGUGGCUGUGACUAGACUGCA [C10G C13U A26U G36A C46A] | 0.01 |
| GGCAGAGCUGAACAAAGCGUGACAAAGUGGCUGUCGGUAGACUGCC [C10G C15A G22A G35C C37G] | 0.02 |
| GGCAGAGCUGAACACAGCGUGGCAAAGUGUUUGUGGUUAGACUGCC [C10G G30U C31U C37U] | 0 |
| GGCAGAGCUGAACACAGAUUUGCAAAGUGGCUGUGGCCAGGCUGCC [C10G C18A G19U G21U U38C A41G] | 0 |
| GGCAGAGCUGAACACAGCGUGGCAAAGUGGCUCUGGCUAUACUGCC [C10G G33C G40U] | 0.01 |
| GGCAGAGCUGACUACAGCGUGGCAAAGUGGUUGUGGCUAGACUGCC [C10G A12C C13U C31U] | 0.04 |
| GGCAGAGCUGAACACAGCGUGGCAACGUGGAUGUGGCUAGCGUGCC [C10G A26C C31A A41C C42G] | 0.01 |
| GGCAGAGCUGAACACAUCGUGGCAAACUGGCUGGGGCUAGACUGCC [C10G G17U G27C U34G] | 0.03 |
| GGCAGAGCUGUACGCAGCGUGGCAAAGUGGCUGGGGCUAGACUGCC [C10G A11U A14G U34G] | 0 |
